# Data taken from ChEMBL document CHEMBL4888484, “Replenishing the malaria drug discovery pipeline: Screening and hit evaluation of the MMV Hit Generation Library 1 (HGL1) against asexual blood stage Plasmodium falciparum ,using a nano luciferase reporter read-out” (2022).
# Values joined by “and” are separate entries in the source; they are usually repeats but may differ in a detail not shown here. Identical values can stand only once. Screen size: about 150,000 compounds; about 540 (0.36%) showed an effect of 50% or more. The list shows a part of the results.
# Tested on: Plasmodium falciparum
# Assay: Primary screen in NF54 nanoGlo assay, in single point, at 2uM, 72h; a lower Z score goes with more inhibition
# Assay type: functional, Erythrocyte
# Conditions: timepoint 72 hour
Structure (SMILES),% Inhibition [%],Z score,% Inhibition (2 µM),Z score (2 µM)
CCN(CC(=O)Nc1ccc(NC(C)=O)cc1)C(=O)CN1C(=O)NC2(CCCC2)C1=O,0,-0.02,–,–
C[C@](O)(CNC(=O)NCc1cccs1)c1cc2ccccc2s1,4,-0.62,–,–
O=S(=O)(c1ccc(-c2cc(C(F)(F)F)n[nH]2)s1)N1CCCc2ccccc21,-5,0.99,–,–
COc1cc2ccccc2cc1C(=O)NC1CC1,-13,1.22,–,–
O=C(Nc1ccc2c(c1)OCCCO2)c1cccc[n+]1[O-],-7,0.91,–,–
Cc1n[nH]c(=O)c2c(NC(=O)CN(C)Cc3ccccc3Cl)oc(C)c12,2,-0.16,–,–
C[C@](O)(CNC(=O)C1(c2cccnc2)CCCC1)c1ccc(F)cc1,-5,0.76,–,–
O=C(NCC1(CO)CCC1)N1CCN(C/C=C/c2ccccc2)CC1,1,-0.23,–,–
COc1ccccc1[C@H](CNC(=O)c1c[nH]nc1-c1ccsc1)OC(C)C,2,-0.32,–,–
CCNC(=O)c1csc(N2CCCCCC2)n1,10,-1.74,–,–
C[C@H]1CS(=O)(=O)N(c2ccc(C(=O)NC(C)(C)C)c(Cl)c2)C1=O,-2,0.23,–,–
CN(Cc1ccc(CN2CCc3[nH]nc(C4CC4)c3C2)o1)S(C)(=O)=O,4,-0.64,–,–
COC(=O)c1ncsc1S(=O)(=O)NC(=O)c1ncoc1-c1ccccc1Cl,-18,1.61,–,–
CN(Cc1nnc2n1CCOCC2)C(=O)c1ccc(CNC(=O)C(C)(C)C)cc1,-7,0.79,–,–
Cc1nc(C)c(CC(=O)NCc2cccnc2-n2ccnc2)s1,-18,2.12,–,–
COc1ccc(-c2noc(-c3cccn3CC(=O)N3CCN(c4ccccc4OC)CC3)n2)cc1F,-11,1.46,–,–
COc1cnc(NC(=O)N2CCn3c(cnc3C(F)(F)F)C2)s1,-2,0.24,–,–
CCc1nnc(CNC(=O)C(=O)c2ccco2)o1,-5,0.65,–,–
COC1CCN(CCNC(=O)c2cc(C)sc2C)CC1,-1,0.22,–,–
O=C(NC1(CO)CC1)c1ncc(F)cc1F,-16,2.44,–,–
CC(C)(CNC(=O)c1cnn2c1CCC2)C1(O)CCCC1,5,-0.6,–,–
O=c1cc(-c2ccncc2)nc(N2CCCC2)n1Cc1ccccc1F,-2,0.2,–,–

Structure (SMILES),% Inhibition [%],Z score,% Inhibition (2 µM),Z score (2 µM)
CCCCc1nnc(NS(=O)(=O)c2cnn3ccccc23)o1,-15,2.84,–,–
Cc1cnn(CC(=O)NCc2ccc(C)n2C)c1,-1,0.12,–,–
NC(=O)[C@H](NC(=O)CC(F)(F)F)c1cccc(Br)c1,-14,1.25,–,–
CCOC(=O)C1(CNC(=O)Cc2ccc(OC(F)F)cc2)CCCC1,-8,0.96,–,–
COc1ccc(NC(=O)c2cc(-c3ccccc3Cl)nn2C)cn1,8,-1.04,–,–
Cc1nnc(-c2cccc(NC(=O)[C@@H]3CCCCN3C(=O)c3cc(C(C)C)no3)c2)s1,-8,0.75,–,–
COc1ccc2c(c1)C1(CC1)CN(C(=O)N(C)CC(F)(F)F)C2,-12,1.72,–,–
CN(C)C(=NC[C@@H](c1c(F)cccc1F)N(C)C)N(C)C,3,-0.48,–,–
CCCn1cnnc1COC(=O)CC1OCCO1,-10,1.18,–,–
Cc1cc(NC(=O)C(C)(C)NS(C)(=O)=O)nn1C,-3,0.5,–,–
Cc1cc(C(=O)N2C[C@H]3CC[C@@H](C2)N(Cc2c(C)noc2C)C3=O)c(C)o1,-3,0.56,–,–
C#CCCC1(CCC(=O)N2CCCC[C@H]2C(F)F)N=N1,6,-0.72,–,–
CCC(CC)(CO)CN(C)C(=O)c1cncn1C,-1,0.25,–,–
CCNc1nc(C)cc(Nc2ccc(NS(=O)(=O)c3c(C)noc3C)cc2)n1,86,-8.65,–,–
CC[C@@H](NC(=O)N1CCC2(CCCO2)CC1)c1ccccc1,7,-0.9,–,–
Cc1nc(N2C[C@H](O)[C@@H](N(C)C)C2)nc2c1CCCC2,-10,1.37,–,–
CN1CCCN(c2ccc(NC(=O)N3CCC(C4OCCO4)CC3)cc2F)CC1,-13,2.01,–,–
CCC[C@H](NC(=O)c1ccc(-c2ccc(OC)nc2)cc1)c1nccn1C,-10,1.3,–,–
Nc1[nH]ncc1-c1nnc(Nc2ccc3c(c2)OCO3)o1,3,-0.34,–,–
CN(CC(C)(C)CO)C(=O)c1cc(F)cc(Cl)c1,-8,1.32,–,–
O=C(NC1CCCC1)c1cc(S(=O)(=O)N2CCCCC2)ccc1F,-9,1.05,–,–
CS(=O)(=O)N1C[C@@H]2OCC(=O)N(Cc3ccccc3)[C@@H]2C1,4,-0.67,–,–

Structure (SMILES),% Inhibition [%],Z score,% Inhibition (2 µM),Z score (2 µM)
CN(Cc1csc(C(C)(C)C)n1)[C@H]1CCS(=O)(=O)C1,-5,0.63,–,–
COc1ccc(Cl)cc1-n1nc(C)nc1Cn1nccc1C,-14,2.28,–,–
CCc1nnc(COc2ccc(N3CCCCC3)c(Cl)c2)o1,8,-1.49,–,–
Cc1cc(C(=O)Nc2c(C)nn(C)c2C)nc(N(C)C)n1,4,-0.62,–,–
CCc1noc(CCc2nc(-c3ccccc3)no2)n1,-1,0.09,–,–
COc1ccc(CCC(=O)N2CC[C@H](c3cccnc3)C2)cc1,-1,0.17,–,–
N#Cc1cccc(C(=O)Nc2ccc(-c3cc[nH]n3)cc2)c1,35,-3.95,–,–
COc1ccnc(N[C@H]2CCOC[C@@H]2OCc2ccccn2)n1,-20,3.23,–,–
Cc1ncc(C(=O)Nc2c(-c3cnn(C)c3)nc3n2CCCC3)s1,-12,1.73,–,–
COCc1cc(CNC2CC(C)N(C3CC3)C2)no1 (configuration not stated),30,-3.85,–,–
COC(=O)c1cnn(-c2ccc(C(=O)N3CCN(Cc4ccc5c(c4)OCO5)CC3)cc2)c1N,-12,1.9,–,–
O=C(NCc1ccccc1OCCO)C1CC12CCc1ccccc12 (configuration not stated),-14,1.19,–,–
Cc1cccn2cc(Cn3ncc(N4CCc5ccccc5C4)cc3=O)nc12,-5,0.65,–,–
CC(C)[C@H](CNC(=O)Cc1ccoc1)Cc1ccccc1,2,-0.3,–,–
Cc1ccc(-c2nnc(-c3cccc4ccccc34)n2-c2ccccc2)cc1,-2,0.32,–,–
COc1cccc(-c2cc(C(=O)Nc3ccc(F)cc3)n3nc(-c4ccccc4)cc3n2)c1,-5,0.73,–,–
C[C@H]1COC2(CCC2)CN1C(=O)c1ccccc1OC1CCC1,6,-1.25,–,–
O=C(Nc1ccc2nc3n(c(=O)c2c1)CCCC3)NC1CCCC1,3,-0.31,–,–
CN(C(=O)OC(C)(C)C)[C@H]1CCN(C(=O)c2cccs2)C1,-5,0.76,–,–
O=S(=O)(CCN1CCc2ccccc2C1)Oc1ccc(Br)cc1,2,-0.31,–,–
Cc1cc2c(c(-c3ccc(Cl)cc3)c1)OC(CNC(=O)C1CCCO1)C2 (configuration not stated),17,-2.2,–,–
CC(C)COCCN[C@H]1CCN(C2CC2)C1,0,0.07,–,–

Structure (SMILES),% Inhibition [%],Z score,% Inhibition (2 µM),Z score (2 µM)
O=C(Nc1nc2c(s1)CN(C(=O)c1cccc(Cl)c1)CC2)NC1CCCC1,-5,0.9,–,–
COC[C@@H]1CN(C(=O)c2ccccc2OC)C[C@H]1c1nc(C2CC2)no1,-8,1.4,–,–
COc1ccc(-c2cc(-c3ccc(Cl)cc3)nc3c(C(=O)Nc4ccccc4)cnn23)cc1,4,-0.49,–,–
O=C(NC1Cc2ccccc2C1)N1CCC[C@H](CCO)CC1,-8,0.99,–,–
Cc1csc(NC(=O)CN2CCCCCC2)n1,-13,1.32,–,–
Cc1cccc(NC(=O)OC(C)(C)C)c1C,-7,1.12,–,–
CC[C@H](C)N(Cc1ccccc1)S(=O)(=O)CC1CCCCC1,1,-0.18,–,–
O=C(CCc1ccc(F)cc1)N1CCN(C(=O)CCc2ccc(F)cc2)c2cnccc21,-6,0.77,–,–
CCCC1(CCC)NC(=O)N(CCC(C)(C)O)C1=O,-10,1.61,–,–
COCCn1nc(C(=O)N2CCC[C@H]2c2ccc3c(c2)OCCCO3)ccc1=O,0,0.01,–,–
O=C(CCN1CCN(c2cc(F)cc(F)c2)CC1)NC1CC1,-43,5.1,–,–
Cn1cc(C(=O)OCCC#Cc2ccccc2)cn1,-12,2.25,–,–
Cc1cc(C(=O)NC2(C(N)=O)CCOCC2)sc1C,-2,0.3,–,–
CC(C)(C)OC(=O)N1CCc2n[nH]c(O)c2CC1,–,–,-4% and -8%,0.58 and 1.09
COCCN(CC(=O)Nc1cn(C)nc1C)Cc1ccncc1,-2,0.24,–,–
O=C1C[C@H](n2ccnc2-c2cnc(-c3ccco3)nc2)CN1Cc1ccccc1,-6,1.1,–,–
CCCCCNC(=O)N(C)C1CCC(CO)CC1 (configuration not stated),-14,1.4,–,–
O=C(NCCc1ccc(C(F)(F)F)cn1)O[C@H]1CCOC1,-5,0.93,–,–
CCCc1cc(C(=O)N2C[C@H](C(=O)O)[C@@H](c3ccccc3C)C2)[nH]n1,-14,1.74,–,–
C[C@@H]1CN(C(=O)Cc2ccccn2)CC[C@@]1(O)C1CCOCC1,-4,0.86,–,–
